The other results are listed elsewhere or left out.

In PMC12136788 one finds binding signal data, which are given here for 22 molecules.

The chains are these.
B1: 151572476_151578043_2371_3pUTR_ENSMUSG00000034021_ENSMUST00000016569|mouse|control|control (ssRNA)
RNA: GGGAGUUCUACAGUCCGACGAUCUACAAUGGAUGGCGUAUUUGGCCUGCCGAGGUGGUCCUUUUUUGGAUUUGUGAUGUAGUACAGGAAGCAAGGCUGAUCUGAUGUGAGGGAAAUCCUCUUCAAUUUUGCUUCCUGUGUUUUCAACAGAGGAUUGAGCAUCA
B2: chr16:18254220:18254221:-_ENSMUSG00000022718_ENSMUST00000009321|mus_mus|FALSE|FALSE (ssRNA)
RNA: GGGAGUUCUACAGUCCGACGAUCCCUGUAAGAGACAGGGAGGGCACUGGAGACCAGGAAUGUGUGGCAGCACCUGUUGACAGUGCCUGGGUCGGUGAGGCUGCAGAGAUACCACCAUUACCAUAUGCUUUUUCAAUGUUAAGUCAACAGAGGAUUGAGCAUCA
B3: chr1:60041781:60041782:+_ENSMUSG00000041040_ENSMUST00000036540|mus_hu|mus_mus_mus_hu_False|1_28 (ssRNA)
RNA: GGGAGUUCUACAGUCCGACGAUCAAGUUUACAAUAGUAAAGUAAAUGCAGUAGUGGCAAAUUUUCUUUUAUUUUCCUUCACAAAAGAAAAUCUUUAUAACCCAGUCCAAUCCCAGAACAUAGUGAAAGCUAUAAAUGCCACUGCAACAGAGGAUUGAGCAUCA
B4: chr2:104430793:104430794:+_ENSMUSG00000027176_ENSMUST00000028599|mus_hu|FALSE|FALSE (ssRNA)
RNA: GGGAGUUCUACAGUCCGACGAUCCGUCUCCUGACAUGGCCUCAGCUGAUUACAACGUGCGCACUGACCGUCGAUGGGAAGCUAGAAAAGAAAAAUUAAACUAAAAACCACCCCCAAAUCAGUAAAGUUACCCCCUGCCCAGCUCAACAGAGGAUUGAGCAUCA
B5: 38044239_38044359_1115_3pUTR_ENSMUSG00000058407_ENSMUST00000162031|mouse|control|control (ssRNA)
RNA: GGGAGUUCUACAGUCCGACGAUCGUUUGAAGAUAGAAGAAUCACGUUAUGAUAAAAUCAAUCACAAAAAUAGAGAAUUCAGACCCUCCCAGGUAAUUUAAAGUAUGUUUCUCUCAAGUUAUACACAAUGACUGCAGACAAAAUCAACAGAGGAUUGAGCAUCA
B6: 34975929_34976049_1091_3pUTR_ENSMUSG00000021413_ENSMUST00000077853|mouse|control|control (ssRNA)
RNA: GGGAGUUCUACAGUCCGACGAUCUUGAAGGUGAUUUAAUUGGCUUCUUUUCUUUGUCAAUUUCAGAUCGUUUUGACUUCCGCUCUUUGGACCUUGACCUUCUGUCUUUGGAUUUAUCUCUUAAGUCAACUGGGGACUUGGAUUCAACAGAGGAUUGAGCAUCA
B7: chr22:19452774:19452775:-_ENSG00000070010_ENST00000399523|hu_hu|hu_hu_hu_mus_False|38_38 (ssRNA)
RNA: GGGAGUUCUACAGUCCGACGAUCCUUCUCAUUGUAGUUGAUAGCAAUCACAUCUCCAGUCGUCAGACAGGCGAAGUUUCUCAAUGCAUUUUCUAAUACGGCUUUGGGGUUGGUAAUAUCCAGGAAGUCUGGGCUCUGAGGCUGCAACAGAGGAUUGAGCAUCA
B8: chr7:141441981:141441982:+_ENSG00000106028_ENST00000265304|hu_mus|hu_hu_hu_mus_False|58_78 (ssRNA)
RNA: GGGAGUUCUACAGUCCGACGAUCCUCAUGUCUUACAAACUGACGAAAUACCUGUAAUACAGGUCUUCGAAACAUGGCUUCUAUUUUUCUUACAACCUAAUCUUUAGGCUUUUCCUAAAGGAAAGAAAGAAAAGAGAAAAAUGACAACAGAGGAUUGAGCAUCA
B9: chr9:66245071:66245072:+_ENSMUSG00000038664_ENSMUST00000042824|mus_mus|FALSE|FALSE (ssRNA)
RNA: GGGAGUUCUACAGUCCGACGAUCUCCCGCCAGGGCCAGAGCAAGGUGAUUUGAAAGCAACUUCAGGCACAGCUUAAGAAAAUUAUGGUGUUCCCUUGAUGAAGGGAAAGGCAGUGGGGGAAUCUCACUGUUUAUUUUAUCACACAACAGAGGAUUGAGCAUCA
B10: 52357847_52357967_588_CDS_ENSMUSG00000003420_ENSMUST00000003512|mouse|control|control (ssRNA)
RNA: GGGAGUUCUACAGUCCGACGAUCUGUGGUCUCCUUCUCCCAAUACCAAGACACCUGAUUUUCCCACAUCCAGGCCCCACAGGGGUCAGCUUCCUGCCGCAGGCUGUUGUAGGUCAGAUACUGCUGAGGACCCAACCAGCCUGUCAACAGAGGAUUGAGCAUCA
B11: chrX:71549400:71549401:+_ENSMUSG00000019087_ENSMUST00000019231|mus_hu|mus_mus_mus_hu_False|38_88 (ssRNA)
RNA: GGGAGUUCUACAGUCCGACGAUCGCAGUAGGAAGAGGGAAGCUCUUCAUCCACUGUCGCUGCAGGGUGGGAAAGCAACAACACGGACACCGUCCCACCUCAAUUCCCCCCACUGGCACAGGGUCACACAAUCUGGGUCAAAGACAACAGAGGAUUGAGCAUCA
B12: chr7:157177620:157177621:+_ENSG00000105993_ENST00000429029|hu_mus|FALSE|FALSE (ssRNA)
RNA: GGGAGUUCUACAGUCCGACGAUCGCCCAUUCCACUGCCGCCAAAUGACGUUGAAGAAAAUGAAGUGAGACCCCCAUGACCUAGUGACCCAAAUGGAGUGAAGCCUGUAUCAAAAGCAGGAAAUCCACUUCCAAAAGAAGGAAACAACAGAGGAUUGAGCAUCA
B13: chr2:187541933:187541934:+_ENSG00000138448_ENST00000261023|hu_hu|FALSE|FALSE (ssRNA)
RNA: GGGAGUUCUACAGUCCGACGAUCAAAAAAGCCCAUCCUGUACAUUACAAAUACCAAAACAGCCAGUAGCAACAAUCCUGCUAGAACUGCUAAAAUGAUCACCCACACAGGCACAGGCAUGGGCGCUGGCUGAAUGCCCCAGGUCAACAGAGGAUUGAGCAUCA
B14: 132971832_132980583_1062_CDS_ENSG00000132294_ENST00000254624|human|control|control (ssRNA)
RNA: GGGAGUUCUACAGUCCGACGAUCGUGUCCUAGAAUCUCCUGGAUCACAUGGUGAGAAUACUGAGCCUGAAUGGAAUACAUUAUAAUUUUAAAGCAGUGAACUGCAAAUUCAUUGGGAUCCCACAGUUUGUGAUGAUCUAAAUGCAACAGAGGAUUGAGCAUCA
B15: chr4:95690885:95690886:+_ENSMUSG00000028572_ENSMUST00000156910|mus_mus|mus_mus_mus_hu_False|18_18 (ssRNA)
RNA: GGGAGUUCUACAGUCCGACGAUCUUUAGAAAAUGUUAAAUACCAUGCUAAAAUAUUUUCAAAGGCUUAUUUUAUUUUACCAGAAGUCACAGGCAAGCAGACACUACAAGAAUAUAUAAAUACAAACCUCAACAAUAUAACUGUCAACAGAGGAUUGAGCAUCA
B16: chr3:148802587:148802588:-_ENSG00000071794_ENST00000310053|hu_mus|hu_hu_hu_mus_False|1_8 (ssRNA)
RNA: GGGAGUUCUACAGUCCGACGAUCUCCAACAACUUGUCCUCUCAUAGUUCCAAAUAAAACCAAAUCUUGCUCUUCAUCACUCGUUAGGAAGUCAUCUGGAGGAAUAAUGUCUUGGAAUUCAAAAUGUGGAAAGAAAGUUGGAUACAACAGAGGAUUGAGCAUCA
B17: chr17:40359653:40359654:-_ENSG00000173757_ENST00000293328|hu_mus|FALSE|FALSE (ssRNA)
RNA: GGGAGUUCUACAGUCCGACGAUCCGGUGUGUAGUACUUAGAAUAUACUUCAUCCUUUGGCCGAUCAGGAAACACAUAUAUGAGGUAAUUCAGGUCCCCCAGGCGGUCAGCGAGGGACCGGAUAGAGAAGUCUCUAGUGGUAAACAACAGAGGAUUGAGCAUCA
B18: chr10:33214929:33214930:-_ENSG00000150093_ENST00000302278|hu_hu|motif|central (ssRNA)
RNA: GGGAGUUCUACAGUCCGACGAUCAACAAGUUCAUUAAAUACUUCUCCUUUAUUAGUAAGACUGAGCACAUUUUUGUAGCGGAAUGGGCUGGUGCAGUUCUGUUCACUUGUGCAAGGGUUCCUGAGCUUAGCUGGUGUUGUGCUCAACAGAGGAUUGAGCAUCA
B19: chr16:94690093:94690094:+_ENSMUSG00000040785_ENSMUST00000117648|mus_hu|motif|central (ssRNA)
RNA: GGGAGUUCUACAGUCCGACGAUCGGGCUGGGAUGACGGACACACAGCCUCGAUUCCAGGGGGAAAAAGUCUUAGUCGAUACGGAUUAAAAAGUGUUAAUGAUUUUUGAAAAUCAGAUUACAUCUAUAAAAGAUGAAAAGCAAACAACAGAGGAUUGAGCAUCA
B20: 106161250_106161370_348_3pUTR_ENSMUSG00000046079_ENSMUST00000060531|mouse|control|control (ssRNA)
RNA: GGGAGUUCUACAGUCCGACGAUCCCCUCAGGGCGCUCUCGAGGACUCGGCUGCGGGCAGGCUCCGGGGGCUGGAACCGCUGCGACGCGAGACUUCACUCCUCCAUCCUGGGAGCCGGCAGCACGUUGCAGUCAGCAGUGCACUCAACAGAGGAUUGAGCAUCA
B21: chr5:61681977:61681978:+_ENSG00000068796_ENST00000381103|hu_hu|FALSE|FALSE (ssRNA)
RNA: GGGAGUUCUACAGUCCGACGAUCCCACUGUCACAGACUUUAGUUCCGUUCAAUGAUAUGGCACAUCCUGCAAAAUUAACUAGUCACACACAAAAAAUGUCUCAAAUACAGUAAAAAUGUACACACAAAGGUAAUUUACAAUGACAACAGAGGAUUGAGCAUCA
B22: chr7:74379609:74379610:-_ENSMUSG00000030557_ENSMUST00000156690|mus_mus|FALSE|FALSE (ssRNA)
RNA: GGGAGUUCUACAGUCCGACGAUCGUAAGUGCCUGAUUUUGUGUAUGCAACACACACCCACACAUACACACACACUCACACCAACAUACAUAUAUAUAUGUAAAGGGAUAUAUAUGUAUGCAUGUACAUAUAAAUAUAUUGAACCAACAGAGGAUUGAGCAUCA

This assay addresses T1, UNK ZnF1-3 (human, UniProt Q9C0B0 31-174).
T1 sequence: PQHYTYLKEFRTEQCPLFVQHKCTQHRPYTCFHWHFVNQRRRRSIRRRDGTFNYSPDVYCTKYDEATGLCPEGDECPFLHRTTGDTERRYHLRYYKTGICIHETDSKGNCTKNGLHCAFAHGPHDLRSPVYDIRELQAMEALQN
Nature of the assay: nsRBNS (natural sequence RNA bind-n-seq); RBNS binding buffer (assumed for nsRBNS): 25 mM Tris pH 7.5, 150 mM KCl, 3 mM MgCl2, 0.01% Triton X-100, 500 ug/ml BSA, 20 U/ml SUPERase-In, 4 C; UNK is unkempt and MSI1 is Musashi-1; names of the RNAs are library labels; protein concentration not given here; high values mean tight binding.
B1 returned a binding signal of 0.313 enrichment R.

B2 yielded a binding signal of 1.02 enrichment R.

Turning to B3, the binding signal stood at 0.658 enrichment R.

As to B4, the binding signal was 2.43 enrichment R.

In the case of B5, the binding signal amounted to 1.15 enrichment R.

The molecule B6 showed a binding signal of 0.294 enrichment R.

Take B7: the binding signal came to 0.912 enrichment R.

Regarding B8, the binding signal was 0.579 enrichment R.

For B9, the binding signal worked out at 1.21 enrichment R.

Turning to B10, the binding signal was 0.939 enrichment R.

B11 displayed a binding signal of 0.955 enrichment R.

As to B12, the binding signal amounted to 1.53 enrichment R.

Turning to B13, the binding signal amounted to 0.775 enrichment R.

B14 gave a binding signal of 1.82 enrichment R.

Consider B15, for which the binding signal amounted to 1.49 enrichment R.

B16 registered a binding signal of 1.19 enrichment R.

For the molecule B17, the binding signal is 1.33 enrichment R.

In turn, B18 returned a binding signal of 0.968 enrichment R.

For B19, the binding signal came to 0.901 enrichment R.

Molecule B20 showed a binding signal of 0.988 enrichment R.

The molecule B21 showed a binding signal of 1.26 enrichment R.

B22 gave a binding signal of 0.833 enrichment R.
